Where no end group is shown, it is not given here.
Tests used:
[1] = test system: Lgr5+ cells of intestinal organoids; assay: Flow cytometry of Lgr5GFPDTR organoids (Lgr5-GFP, KI67); type: cell-based, mouse; conditions: for KI67 expression of remaining Lgr5 GFP cells: control 94.4±2.1%
intestinal organoids = assay: Cell cycle analysis of intestinal organoids (EdU, KI67, Hoechst DNA content); type: cell-based, mouse; conditions: from 24 h, persisted at least a week
[2] = test system: cells in the villus of the intestine; assay: Oral gavage of mice with BMP inhibitor, villus hormone expression; type: in vivo; conditions: 35 mg/kg oral gavage twice daily, 60 hour treatment
glucagon secretion = conditions: through modulation of calcium channel activity; cited from earlier work

**Q.** For `C[C@H](NC(=O)Cc1cc(F)cc(F)c1)C(=O)N[C@H](C(=O)OC(C)(C)C)c1ccccc1` [DAPT], which “KI67 expression of remaining Lgr5 GFP cells” value [1] is on record?
**A.** Its value is 45.1±10%.

**Q.** What does the source list for `COc1cc2ncnc(Nc3ccc(F)c(Cl)c3)c2cc1OCCCN1CCOCC1` [Gefitinib]?
**A.** Lgr5+ cells as fraction of the organoids ([1]; after 4 days of treatment, control 13.6±6.5%): 44.4±0.8%; DNA replication (short pulse of EdU) (intestinal organoids): rapid halt in DNA replication

**Q.** With `Cc1ccc2nc(NC(=O)CSc3nc4c(c(=O)n3-c3ccccc3)SCC4)sc2c1` [IWP-2] as the compound, how does the “KI67 expression of remaining Lgr5 GFP cells” value [1] read?
**A.** The value was 63.5±2.8%.

**Q.** Which “Secretin expression in cells in the villus compared to control mice” value [2] does the source give for `Cl.c1ccc2c(-c3cnn4cc(-c5ccc(N6CCNCC6)cc5)cnc34)ccnc2c1` [LDN193189] here?
**A.** The value was “greatly reduced”.

**Q.** Which “inhibition of glucagon secretion” value (glucagon secretion) does the source give for “GLP-1: endogenous incretin, Glucagon-like peptide-1 (HAEGTFTSDVSSYLEGQAAKEFIAWLVKGR; ends and bridges not checked; UniProt P01275 98-127, looked up)” here?
**A.** Its value is 50%.

— patent US20250145963A1, “Improved Differentiation Method” (Koninklijke Nederlandse Akademie Van Wetenschappen, priority 2016, published 2025)
